Laboratory results: ChEMBL document CHEMBL4888484, “Replenishing the malaria drug discovery pipeline: Screening and hit evaluation of the MMV Hit Generation Library 1 (HGL1) against asexual blood stage Plasmodium falciparum ,using a nano luciferase reporter read-out” (2022)
Among all 150,000 compounds or so, about 540 (0.36%) showed an effect of 50% or more. The list shows a part of the results.

These molecules were tested on Plasmodium falciparum (assay: Primary screen in NF54 nanoGlo assay, in single point, at 2uM, 72h; a lower Z score goes with more inhibition). Conditions: timepoint 72 hour.
Type: functional, Erythrocyte

Going from `Cc1ccc(Cl)cc1N1CCN(C(=O)c2c(C)noc2C(C)C)CC1` to `O=C(c1ccc2nsnc2c1)N1CCN(c2cc3c(nn2)CCCC3)CC1`, the “% Inhibition” value rises from -15% to -4%.

Going from `COc1ccc2cc(-c3nc(CCN(C)C(=O)c4ccc(N(C)C)cc4)no3)[nH]c2c1` to `COc1cccc(-c2cc(C(=O)NCc3ccccc3)n3nc(C(C)(C)C)cc3n2)c1`, the “% Inhibition” value falls from -2% to -6%.

`CCOC(=O)Cc1csc(NC(=O)c2c[nH]c3c(F)cccc3c2=O)n1` and `Cc1cccc(-c2ocnc2C(=O)N2CCC[C@H](c3nc(C)ncc3CO)C2)c1` are the same in “% Inhibition” value: -4% for the first, -4% for the second.

`NC(=O)C(NC(=O)NCCCC1CCCC1)C(N)=O` and `C[C@H]1CCCCN1CCNC(=O)c1cnc2ccc(F)cc2c1` are the same in “% Inhibition” value: -7% for the first, -7% for the second.

Going from `O=C(COC(=O)CCS(=O)(=O)c1ccccc1)NC(=O)[C@@H]1COc2ccccc2O1` to `Cc1nc2c(c(=O)[nH]1)CN(C(=O)CCS(=O)(=O)c1ccccc1)C2`, the “% Inhibition” value rises from -8% to 0%.

Going from `CCCS(=O)(=O)N1CCOc2ccc(CN3CCCCC3)cc2C1` to `O=C(c1cccc(S(=O)(=O)N2CC[C@@H](O)C2)c1)N1CCCCCCC1`, the “% Inhibition” value falls from -10% to -11%.

Compared with `O=C(Nc1ccc2c(c1)OCO2)N1C2CCC1CN(Cc1ccccc1)C2`, `NC(=O)Cn1ccnc1C1CCN(C(=O)c2cc3ccccc3cn2)CC1` is higher in “% Inhibition” value: -13% for the first, -5% for the second.

Going from `Cc1nnc2ccc(N3CCC(Cn4nc5c(cc4=O)CCC5)CC3)nn12` to `Cc1nnc(CN(C)C(=O)c2ccc3nc(C4CCCCC4)oc3c2)o1`, the “% Inhibition” value falls from -4% to -7%.

Going from `Cc1coc(-c2cccc(NC(=O)NC[C@H]3CCCS3(=O)=O)c2)n1` to `N#Cc1cccc(NC(=O)C(=O)Nc2ccn(CCN3CCOCC3)n2)c1`, the “% Inhibition” value rises from -13% to -9%.

Compared with `CCCc1cc(C(=O)N[C@H]2Cc3ccccc3[C@@H]2N)no1`, `O=C(C[C@H]1CCc2ccccc2C1)NCCNc1ncccn1` is higher in “% Inhibition” value: -13% for the first, -7% for the second.

First: Cc1nc(CCNc2ccc(C(=O)N3CCC(C)CC3)cn2)sc1C
Second: Cc1c[nH]c(CN(C)C(=O)c2ccc(C#N)nc2)n1
The “% Inhibition” value of the first is lower: -13% for the first, -6% for the second.

Compared with `O=C(c1cc(-c2ccccc2)nc2ccccc12)N1CCN(S(=O)(=O)c2ccccc2)CC1`, `O=C(c1ccccc1)N1CCN(S(=O)(=O)c2cc(Cl)sc2Cl)CC1` is higher in “% Inhibition” value: -10% for the first, -4% for the second.

`NC(=O)c1ccc(CNC(=O)c2cccc(-n3cccn3)n2)o1` and `Cn1cc(C(=O)Nc2ccccc2NCCc2ccccn2)cn1` are the same in “% Inhibition” value: -7% for the first, -7% for the second.

Going from `COc1ccc(CNCc2cc3ccccc3nc2N2CCCCC2)cn1` to `Nc1c2c(-c3ccccc3Cl)nc(NCCN3CCCCC3)nc2nn1-c1ccc(F)cc1`, the “% Inhibition” value falls from 8% to -6%.

Compared with `CO[C@@H](CNC(=O)C(C)(C)C)c1ccc(C)s1`, `CC(C)C(NC(=O)[C@H](O)c1ccccc1)C(=O)N(C)C` (some centres not stated) is higher in “% Inhibition” value: -5% for the first, 2% for the second.

`Cc1cnc(C2CN(Cc3ccccn3)C2)n1CC1CC1` and `Cc1nn(-c2ccccc2)c2nc(C3CCOCC3)nc(N3CCN(C(=O)c4cccs4)CC3)c12` are the same in “% Inhibition” value: -7% for the first, -7% for the second.

Compared with `Cc1nnccc1C(=O)N1CCNC(=O)CC12CCC2`, `Cc1ccc(Cl)cc1NC(=O)CC(=O)N1CCC2(CCC(=O)N(C)CC2)CC1` is higher in “% Inhibition” value: -7% for the first, 4% for the second.

First: CCn1nccc1CN(CCO)C(=O)[C@H]1CCCCC1(F)F
Second: O=C1NC(c2ccc(OC(F)F)c(Cl)c2)N2CCOCC12 (configuration not stated)
The “% Inhibition” value of the first is lower: 2% for the first, 3% for the second.

Compared with `CCc1nc(NCc2nnc(C(C)C)n2C)c2ccsc2n1`, `CC(C)c1ccc(N2C(=O)[C@H](CC(=O)NCCNc3ncccn3)N=C2O)cc1` is higher in “% Inhibition” value: -10% for the first, 5% for the second.

Going from `C[C@@H](CNc1nc(-c2ccccc2)nc2nc(-c3ccc(Cl)cc3)oc12)N1CCOCC1` to `O=C1CCC2(CCN(Cc3cccs3)CC2)N1Cc1ccc(F)cc1`, the “% Inhibition” value rises from -17% to 11%.

For `CS(=O)(=O)NCCN1Cc2ccccc2C1`, the “% Inhibition” value was -4%.

Going from `Cc1ccc(Cl)cc1N1CCN(C(=O)c2c(C)noc2C(C)C)CC1` to `O=C(c1ccc2nsnc2c1)N1CCN(c2cc3c(nn2)CCCC3)CC1`, the Z score falls from 2.1 to 0.61.

Compared with `COc1ccc2cc(-c3nc(CCN(C)C(=O)c4ccc(N(C)C)cc4)no3)[nH]c2c1`, `COc1cccc(-c2cc(C(=O)NCc3ccccc3)n3nc(C(C)(C)C)cc3n2)c1` is higher in Z score: 0.46 for the first, 0.94 for the second.

Compared with `CCOC(=O)Cc1csc(NC(=O)c2c[nH]c3c(F)cccc3c2=O)n1`, `Cc1cccc(-c2ocnc2C(=O)N2CCC[C@H](c3nc(C)ncc3CO)C2)c1` is higher in Z score: 0.47 for the first, 0.51 for the second.

Going from `NC(=O)C(NC(=O)NCCCC1CCCC1)C(N)=O` to `C[C@H]1CCCCN1CCNC(=O)c1cnc2ccc(F)cc2c1`, the Z score falls from 1.27 to 0.69.

First: O=C(COC(=O)CCS(=O)(=O)c1ccccc1)NC(=O)[C@@H]1COc2ccccc2O1
Second: Cc1nc2c(c(=O)[nH]1)CN(C(=O)CCS(=O)(=O)c1ccccc1)C2
The Z score of the first is higher: 1.34 for the first, 0.09 for the second.

Going from `CCCS(=O)(=O)N1CCOc2ccc(CN3CCCCC3)cc2C1` to `O=C(c1cccc(S(=O)(=O)N2CC[C@@H](O)C2)c1)N1CCCCCCC1`, the Z score rises from 1.04 to 1.46.

Compared with `O=C(Nc1ccc2c(c1)OCO2)N1C2CCC1CN(Cc1ccccc1)C2`, `NC(=O)Cn1ccnc1C1CCN(C(=O)c2cc3ccccc3cn2)CC1` is lower in Z score: 2.49 for the first, 0.84 for the second.

Compared with `Cc1nnc2ccc(N3CCC(Cn4nc5c(cc4=O)CCC5)CC3)nn12`, `Cc1nnc(CN(C)C(=O)c2ccc3nc(C4CCCCC4)oc3c2)o1` is higher in Z score: 0.63 for the first, 1.22 for the second.

Going from `Cc1coc(-c2cccc(NC(=O)NC[C@H]3CCCS3(=O)=O)c2)n1` to `N#Cc1cccc(NC(=O)C(=O)Nc2ccn(CCN3CCOCC3)n2)c1`, the Z score falls from 1.69 to 1.19.

Compared with `CCCc1cc(C(=O)N[C@H]2Cc3ccccc3[C@@H]2N)no1`, `O=C(C[C@H]1CCc2ccccc2C1)NCCNc1ncccn1` is lower in Z score: 1.8 for the first, 1.38 for the second.

Compared with `Cc1nc(CCNc2ccc(C(=O)N3CCC(C)CC3)cn2)sc1C`, `Cc1c[nH]c(CN(C)C(=O)c2ccc(C#N)nc2)n1` is lower in Z score: 2.17 for the first, 0.8 for the second.

Going from `O=C(c1cc(-c2ccccc2)nc2ccccc12)N1CCN(S(=O)(=O)c2ccccc2)CC1` to `O=C(c1ccccc1)N1CCN(S(=O)(=O)c2cc(Cl)sc2Cl)CC1`, the Z score falls from 1.84 to 0.69.

Going from `NC(=O)c1ccc(CNC(=O)c2cccc(-n3cccn3)n2)o1` to `Cn1cc(C(=O)Nc2ccccc2NCCc2ccccn2)cn1`, the Z score falls from 0.77 to 0.75.

First: COc1ccc(CNCc2cc3ccccc3nc2N2CCCCC2)cn1
Second: Nc1c2c(-c3ccccc3Cl)nc(NCCN3CCCCC3)nc2nn1-c1ccc(F)cc1
The Z score of the first is lower: -1.22 for the first, 0.59 for the second.

Going from `CO[C@@H](CNC(=O)C(C)(C)C)c1ccc(C)s1` to `CC(C)C(NC(=O)[C@H](O)c1ccccc1)C(=O)N(C)C` (some centres not stated), the Z score falls from 0.78 to -0.29.

First: Cc1cnc(C2CN(Cc3ccccn3)C2)n1CC1CC1
Second: Cc1nn(-c2ccccc2)c2nc(C3CCOCC3)nc(N3CCN(C(=O)c4cccs4)CC3)c12
The Z score of the first is higher: 1.18 for the first, 1.09 for the second.

Going from `Cc1nnccc1C(=O)N1CCNC(=O)CC12CCC2` to `Cc1ccc(Cl)cc1NC(=O)CC(=O)N1CCC2(CCC(=O)N(C)CC2)CC1`, the Z score falls from 0.95 to -0.41.

Going from `CCn1nccc1CN(CCO)C(=O)[C@H]1CCCCC1(F)F` to `O=C1NC(c2ccc(OC(F)F)c(Cl)c2)N2CCOCC12` (configuration not stated), the Z score falls from -0.29 to -0.37.

First: CCc1nc(NCc2nnc(C(C)C)n2C)c2ccsc2n1
Second: CC(C)c1ccc(N2C(=O)[C@H](CC(=O)NCCNc3ncccn3)N=C2O)cc1
The Z score of the first is higher: 1.82 for the first, -0.6 for the second.

Going from `C[C@@H](CNc1nc(-c2ccccc2)nc2nc(-c3ccc(Cl)cc3)oc12)N1CCOCC1` to `O=C1CCC2(CCN(Cc3cccs3)CC2)N1Cc1ccc(F)cc1`, the Z score falls from 2.25 to -1.41.

`CS(=O)(=O)NCCN1Cc2ccccc2C1` was tested, and the Z score was 0.54.
